{"source": "PubChem BioAssay AID1508642", "about": "(National Center for Advancing Translational Sciences (NCATS), 2021)", "note": "Screen size: about 43,000 compounds; about 200 (0.47%) were called active. Another 12% or so got no clear call; they are omitted. Calls come from the whole dose curve; as a rule, active = well fitted cell-killing curve with a large enough effect; inconclusive = small, poorly fitted or top-dose-only effect, or effect the other way; inactive = flat fitted curve, though single readings scatter. Some of the results follow. % is set by controls: 0 for no effect and ±100 for the full control effect."}
{"assay": "Cell viability qHTS assay in S16 Pmp22-F2sN cells; note: nearly all actives have a fitted effect of over 65% in size", "conditions": "S16 Pmp22-F2sN Schwann cells viability, CellTiter-Glo, 24 h; series mostly up to 57.5 µM; activity change, negative = cytotoxicity: at the top concentration", "method_in_brief": "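S16 Pmp22-F2sN Schwann cells (500-1,000/well) in phenol-red-free DMEM with 10% FBS received 23 nL compound by pin tool for 24 h at 37 °C. Viability was then read as CellTiter-Glo luminescence after 15 min at room temperature.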"}
{"smiles": "COC(=O)c1scc(-c2ccc(C)cc2)c1S(=O)(=O)N1CCN(c2ccccc2)CC1", "activity change, negative = cytotoxicity": "inactive: 18.1%"}
{"smiles": "COc1cccc(NC(=O)CC(=O)Nc2ccc3nc4n(c(=O)c3c2)CCCCC4)c1", "activity change, negative = cytotoxicity": "inactive: 6.4%"}
{"smiles": "COc1cc(OC)cc(N2C(=O)N(Cc3ccc(C(C)(C)C)cc3)c3ccccc3S2(=O)=O)c1", "activity change, negative = cytotoxicity": "inactive: -0.808%"}
{"smiles": "COc1ccc(S(=O)(=O)N2CCC(C(=O)Nc3ccccc3)CC2)cc1OC", "activity change, negative = cytotoxicity": "inactive: 1.07%"}
{"smiles": "CCOC(=O)c1c(C)[nH]c(C)c1S(=O)(=O)NCC(=O)Nc1cccc(C#N)c1", "activity change, negative = cytotoxicity": "inactive: -6.72%"}
{"smiles": "Cc1sc2ncn(CC(=O)Nc3ccc(C(C)C)cc3)c(=O)c2c1S(=O)(=O)N1CCN(c2ncccn2)CC1", "activity change, negative = cytotoxicity": "inactive: 17.6%"}
{"smiles": "COc1ccc2c(c1)sc1ncc(C(=O)NCc3ccccc3F)c(=O)n12", "activity change, negative = cytotoxicity": "inactive: 6.66%"}
{"smiles": "COc1ccc(S(=O)(=O)Nc2ccc3oc4c(c3c2)CCCC4)cc1", "activity change, negative = cytotoxicity": "inactive: 0.969%"}
{"smiles": "CC1(C)N=C(SCc2ccccc2Cl)c2ccccc2N1", "activity change, negative = cytotoxicity": "inactive: -18.4%"}
{"smiles": "Cc1ccc(S(=O)(=O)c2nnn3c2nc(NC(C)C)c2cc(Cl)ccc23)cc1C", "activity change, negative = cytotoxicity": "inactive: 5.04%"}
{"smiles": "Cc1cccc(-c2noc(-c3cccnc3NCc3ccc(Cl)cc3)n2)c1", "activity change, negative = cytotoxicity": "inactive: 6.92%"}
{"smiles": "CCCCNC(=O)CSc1nc2n[nH]c(C)c2c(=N)n1-c1cccc(Cl)c1C", "activity change, negative = cytotoxicity": "inactive: -24.5%"}
{"smiles": "COc1cccc(NC(=O)/C(C#N)=C/c2c(C)n(Cc3ccc(Cl)cc3)c3ccccc23)c1", "activity change, negative = cytotoxicity": "inactive: -9.74%"}
{"smiles": "COc1ccc(CCn2c3c(c(=O)[nH]c2=O)C(NC(=O)c2ccc(C(C)(C)C)cc2)(C(F)(F)F)C(=O)N3)cc1OC", "note": "(stereo not given)", "activity change, negative = cytotoxicity": "inactive: 8.8%"}
{"smiles": "CC(=O)c1cc(-c2ccc(F)cc2)n(CC(=O)Nc2cc(C)cc(C)c2)c1C", "activity change, negative = cytotoxicity": "inactive: 12%"}
{"smiles": "COc1ccccc1Cc1nc2ccccc2nc1SCC(=O)N1CCN(c2ccccc2)CC1", "activity change, negative = cytotoxicity": "inactive: -3.12%"}
{"smiles": "Cc1cc2nc(-c3ccc(NC(=O)c4cc5ccccc5o4)cc3)oc2cc1C", "activity change, negative = cytotoxicity": "inactive: -0.614%"}
{"smiles": "CCOc1ccc(Nc2nc3c(S(=O)(=O)c4ccc(C(C)C)cc4)nnn3c3ccsc23)cc1", "activity change, negative = cytotoxicity": "inactive: 5.11%"}
{"smiles": "O=C(NCc1ccco1)c1ccc2c(c1)N(Cc1ccc(Cl)cc1)C(=O)c1ccccc1S2", "activity change, negative = cytotoxicity": "inactive: -17.2%"}
{"smiles": "COc1ccc(CCNC(=O)CCn2c(=O)c3ccccc3n(Cc3ccccc3)c2=O)cc1OC", "activity change, negative = cytotoxicity": "inactive: 5.6%"}
{"smiles": "CC(C)c1nn2c(=O)cc(COC(=O)c3ccccc3NC(=O)c3cccc(Cl)c3)nc2s1", "activity change, negative = cytotoxicity": "inactive: 19.5%"}
{"smiles": "COc1cc(OC)c(NS(=O)(=O)c2c(C(=O)N3CCC(C)CC3)c(C)n(C)c2C)cc1Cl", "activity change, negative = cytotoxicity": "inactive: 5%"}
{"smiles": "Cc1nnc(NC(=O)CSCc2cc(=O)c3ccccc3[nH]2)s1", "activity change, negative = cytotoxicity": "inactive: -16%"}
{"smiles": "COc1ccc(CCNC(=O)C(C)n2c(=O)cc(C(F)(F)F)c3c(C)nn(C)c32)cc1OC", "note": "(stereo not given)", "activity change, negative = cytotoxicity": "inactive: 22.4%"}
{"smiles": "Cc1cc(C)cc(Oc2nc3c(C)cccn3c(=O)c2/C=C(\\C#N)c2nc3ccccc3s2)c1", "activity change, negative = cytotoxicity": "inactive: 3.99%"}
{"smiles": "COc1ccc(N2CCN(Cc3nnc(-c4cccc(Br)c4)o3)CC2)cc1", "activity change, negative = cytotoxicity": "inactive: 1.24%"}
{"smiles": "CCS(=O)(=O)N1CC(=O)N(c2ccc(Cl)cc2)C(C)(C(=O)NC2CCCCCC2)C1", "note": "(stereo not given)", "activity change, negative = cytotoxicity": "inactive: 3.54%"}
{"smiles": "Cc1nc2ccn(Cc3cccnc3)c(=O)c2cc1C(=O)N1CCN(c2ccc(F)cc2)CC1", "activity change, negative = cytotoxicity": "inactive: -4.94%"}
{"smiles": "COC(=O)c1ccccc1NC(=O)c1cnc2c(-c3cccc(C)c3)c(C)nn2c1C", "activity change, negative = cytotoxicity": "inactive: 0.423%"}
{"smiles": "Cc1ccc2oc(=O)c(S(=O)(=O)c3ccc(C(C)(C)C)cc3)cc2c1", "activity change, negative = cytotoxicity": "inactive: -1.72%"}
{"smiles": "CN(C)c1ccc(CNC(=O)CN2CCSc3ccc(S(=O)(=O)N(C)C)cc32)cc1", "activity change, negative = cytotoxicity": "inactive: -0.0239%"}
{"smiles": "COc1ccc(OC)c2sc(N(Cc3cccnc3)C(=O)c3ccco3)nc12", "activity change, negative = cytotoxicity": "inactive: -2.98%"}
{"smiles": "CCc1ccccc1NC(=O)Nc1nnc(N(CC)c2ccccc2)s1", "activity change, negative = cytotoxicity": "inactive: 7.18%"}
{"smiles": "Cc1ccc(CNC(=O)c2cc(-c3ccc(Cl)cc3)on2)cc1", "activity change, negative = cytotoxicity": "inactive: -0.682%"}
{"smiles": "CC(C)(C)c1ccc(C(=O)Nc2sc3c(c2C#N)CCC(C(C)(C)C)C3)cc1", "note": "(stereo not given)", "activity change, negative = cytotoxicity": "inactive: -0.148%"}
{"smiles": "O=C(Nc1ccc(Br)cc1)C1CCCN1S(=O)(=O)c1ccc(F)cc1", "note": "(stereo not given)", "activity change, negative = cytotoxicity": "inactive: -2.57%"}
{"smiles": "COc1ccc(CNC(=O)c2oc3c(c2C)-c2nn(Cc4ccc(Cl)cc4)cc2CC3)cc1", "activity change, negative = cytotoxicity": "inactive: -16.5%"}
{"smiles": "Cc1ccc(CNC(=O)CNS(=O)(=O)c2cccs2)cc1", "activity change, negative = cytotoxicity": "inactive: -14.4%"}
{"smiles": "Cc1ccc(NC(=O)C2CCN(c3nn4cc(-c5ccc(C)cc5)nc4s3)CC2)cc1", "activity change, negative = cytotoxicity": "inactive: -1.09%"}
{"smiles": "CCN(c1ccccc1)S(=O)(=O)c1nnc(NC(=O)COc2cccc(C)c2)s1", "activity change, negative = cytotoxicity": "inactive: -4.31%"}
{"smiles": "Cc1cccn2c(=O)c(C(=O)NC(C)c3ccccc3)cnc12", "note": "(stereo not given)", "activity change, negative = cytotoxicity": "inactive: -0.741%"}
{"smiles": "Cc1ccc(OCc2nc(-c3ccc(C(=O)NCc4ccc(OC(C)C)cc4)cc3)oc2C)cc1", "activity change, negative = cytotoxicity": "inactive: 4.62%"}
{"smiles": "CCN(C(=O)c1cc2c(=O)oc3ccc(C)cc3c2s1)c1ccccc1C", "activity change, negative = cytotoxicity": "inactive: -3.58%"}
{"smiles": "Cc1cc(C)cc(N2C(=O)N(Cc3cccc(F)c3)c3ccccc3S2(=O)=O)c1", "activity change, negative = cytotoxicity": "inactive: -4.9%"}
{"smiles": "Cc1ccc(C(=O)c2cn(Cc3ccc(Cl)cc3)c3nc(C)ccc3c2=O)cc1", "activity change, negative = cytotoxicity": "inactive: 5.94%"}
{"smiles": "COc1ccc(N2CCN(C(=O)CSc3n[nH]c(-c4ccccc4Cl)n3)CC2)cc1", "activity change, negative = cytotoxicity": "inactive: 16.8%"}
{"smiles": "Cc1ccc(C)c(CN2C(=O)c3ccccc3S(=O)(=O)c3ccc(C(=O)NCCC4=CCCCC4)cc32)c1", "activity change, negative = cytotoxicity": "inactive: -9.38%"}
{"smiles": "Cc1cc(C)c(NC(=O)C(C)n2nnc3sc4c(c3c2=O)CCCC4)c(C)c1", "note": "(stereo not given)", "activity change, negative = cytotoxicity": "inactive: 12.1%"}
{"smiles": "COc1ccc(Nc2oc(-c3ccc(COc4ccccc4C)o3)nc2C#N)cc1", "activity change, negative = cytotoxicity": "inactive: 1.79%"}
{"smiles": "CCOc1ccc(N(C)S(=O)(=O)c2ccc3[nH]cc(C(=O)NCc4ccccc4)c(=O)c3c2)cc1", "activity change, negative = cytotoxicity": "inactive: -2.01%"}
{"smiles": "Cc1cccc(-c2noc(-c3ccc(N4CCOCC4)c([N+](=O)[O-])c3)n2)c1", "activity change, negative = cytotoxicity": "inactive: 2.8%"}
{"smiles": "CC1CCN(S(=O)(=O)c2ccc3c(ccc(=O)n3CC(=O)Nc3cccc(F)c3)c2)CC1", "activity change, negative = cytotoxicity": "inactive: 1.35%"}
{"smiles": "O=C(Nc1cnc(N2CCN(c3ccccc3)CC2)c(C(=O)O)c1)c1cccs1", "activity change, negative = cytotoxicity": "inactive: 0.0615%"}
{"smiles": "Cc1ccc(NC(=O)c2cc(S(=O)(=O)NCCc3ccc(Cl)cc3)ccc2F)cc1", "activity change, negative = cytotoxicity": "inactive: -17.6%"}
{"smiles": "CC(C)(C)C1CCc2oc3ccc(NS(=O)(=O)c4ccc(C(=O)O)cc4)cc3c2C1", "note": "(stereo not given)", "activity change, negative = cytotoxicity": "inactive: 6.77%"}
{"smiles": "COc1ccc(Cn2c(SCC(=O)N(C)Cc3ccccc3)nc3ccccc32)cc1", "activity change, negative = cytotoxicity": "inactive: -26.2%"}
{"smiles": "Cc1ccc(NC(=O)Cn2c(=O)nc(-c3ccccc3)c3ccccc32)cc1F", "activity change, negative = cytotoxicity": "inactive: 6.22%"}
{"smiles": "COc1ccc(C2N=C(N)Nc3nc4ccccc4n32)cc1", "note": "(stereo not given)", "activity change, negative = cytotoxicity": "inactive: 0.28%"}
{"smiles": "CC1CCCCN1C(=O)c1cc(-c2ccc(Br)cc2)on1", "note": "(stereo not given)", "activity change, negative = cytotoxicity": "inactive: 0.016%"}
{"smiles": "Cc1csc2nc(COc3cccc(NC(=O)c4ccccc4F)c3)cc(=O)n12", "activity change, negative = cytotoxicity": "inactive: 0.777%"}
